Test results as given in US20250032630A1, “B7H4 ANTIBODY-DRUG CONJUGATE AND USE THEREOF” (Duality Biologics (Suzhou) Co., Ltd., priority 2022, published 2025).

What was measured:
human CD86 (B7-2) = target: T1, human CD86 (B7-2) (Homo sapiens, UniProt P42081); assay: Binding specificity to cells overexpressing human B7 family proteins (flow cytometry); details: HEK293T stably expressing the protein, 100 nM or 300 nM
T1 construct: expressed in transfected cells
T1 sequence (P42081 24-329): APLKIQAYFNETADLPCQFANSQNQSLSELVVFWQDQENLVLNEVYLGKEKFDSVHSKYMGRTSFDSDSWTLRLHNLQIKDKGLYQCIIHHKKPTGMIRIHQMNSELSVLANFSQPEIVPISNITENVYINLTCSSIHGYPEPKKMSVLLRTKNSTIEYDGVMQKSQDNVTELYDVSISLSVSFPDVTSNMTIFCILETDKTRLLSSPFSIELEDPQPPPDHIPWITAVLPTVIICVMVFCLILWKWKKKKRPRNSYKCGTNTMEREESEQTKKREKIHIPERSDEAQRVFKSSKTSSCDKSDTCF

human B7H4 = target: T2, human B7H4 (Homo sapiens, UniProt Q7Z7D3); assay: as above; set-up: expressed in transfected cells; details: HEK293T stably expressing the protein, 100 nM or 300 nM
T2 sequence (Q7Z7D3 25-282): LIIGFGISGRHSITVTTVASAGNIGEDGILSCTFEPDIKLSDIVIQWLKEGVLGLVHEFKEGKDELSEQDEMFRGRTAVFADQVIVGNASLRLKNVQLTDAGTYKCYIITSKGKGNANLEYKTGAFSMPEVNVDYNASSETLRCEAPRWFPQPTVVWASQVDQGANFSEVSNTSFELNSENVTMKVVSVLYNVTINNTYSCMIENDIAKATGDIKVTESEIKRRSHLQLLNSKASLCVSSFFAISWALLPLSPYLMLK

human VISTA (B7-H5) = target: T3, human VISTA (B7-H5) (Homo sapiens, UniProt Q9H7M9); assay: as above; details: HEK293T stably expressing the protein, 100 nM or 300 nM
T3 construct: expressed in transfected cells
T3 sequence (Q9H7M9 33-311): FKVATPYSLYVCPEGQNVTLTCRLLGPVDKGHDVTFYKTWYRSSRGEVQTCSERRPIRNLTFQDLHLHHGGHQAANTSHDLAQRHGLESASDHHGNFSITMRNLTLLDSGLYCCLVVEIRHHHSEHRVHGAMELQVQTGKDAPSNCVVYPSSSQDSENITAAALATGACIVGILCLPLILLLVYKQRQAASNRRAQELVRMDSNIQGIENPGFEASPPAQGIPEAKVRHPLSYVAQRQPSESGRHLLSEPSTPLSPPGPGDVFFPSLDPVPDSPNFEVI

human PD-L2 (B7-DC) = target: T4, human PD-L2 (B7-DC) (Homo sapiens, UniProt Q9BQ51); assay: as above; details: HEK293T stably expressing the protein, 100 nM or 300 nM
T4 construct: expressed in transfected cells
T4 sequence (Q9BQ51 20-273): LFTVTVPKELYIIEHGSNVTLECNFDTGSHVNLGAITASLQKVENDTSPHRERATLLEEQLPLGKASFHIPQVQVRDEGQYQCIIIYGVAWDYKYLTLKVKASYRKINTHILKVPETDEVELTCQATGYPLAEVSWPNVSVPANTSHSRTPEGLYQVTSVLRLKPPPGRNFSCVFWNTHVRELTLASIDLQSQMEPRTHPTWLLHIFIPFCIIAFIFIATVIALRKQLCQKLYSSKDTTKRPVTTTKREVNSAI

MDA-MB-468 cells = assay: Endocytosis of antibody-drug conjugate (Fab-pHrodo, FACS); type: cell-based; details: two values per conjugate
[1] = tested on: B7H4-expressing MDA-MB-468 cells; assay: Endocytosis efficiency (Incucyte Fabfluor-pH, live-cell imaging 24 hours); type: cell-based; details: MDA-MB-468, final concentration 60 nM
[2] = Pharmacokinetics of antibody-drug conjugate in cynomolgus monkeys; details: cynomolgus monkey, in vivo, iv
mouse B7H4 = target: T5, mouse B7H4 (Mus musculus, UniProt Q7TSP5); assay: Species cross-reactivity, flow cytometry binding to B7H4-transfected HEK293T cells; details: Mouse B7H4-293T
T5 construct: expressed in transfected cells; host or cells: HEK293T
T5 sequence (Q7TSP5 25-257): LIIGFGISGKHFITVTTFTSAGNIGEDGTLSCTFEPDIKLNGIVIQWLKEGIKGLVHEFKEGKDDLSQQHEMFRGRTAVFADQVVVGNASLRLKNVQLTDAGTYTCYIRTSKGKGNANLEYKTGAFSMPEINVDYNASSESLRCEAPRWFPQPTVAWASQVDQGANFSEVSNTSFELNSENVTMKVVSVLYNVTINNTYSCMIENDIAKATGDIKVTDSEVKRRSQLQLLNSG

human ICOSLG (B7-H2) = target: T6, human ICOSLG (B7-H2) (Homo sapiens, UniProt O75144); assay: Binding specificity to cells overexpressing human B7 family proteins (flow cytometry); details: HEK293T stably expressing the protein, 100 nM or 300 nM
T6 construct: expressed in transfected cells
T6 sequence (O75144 19-302): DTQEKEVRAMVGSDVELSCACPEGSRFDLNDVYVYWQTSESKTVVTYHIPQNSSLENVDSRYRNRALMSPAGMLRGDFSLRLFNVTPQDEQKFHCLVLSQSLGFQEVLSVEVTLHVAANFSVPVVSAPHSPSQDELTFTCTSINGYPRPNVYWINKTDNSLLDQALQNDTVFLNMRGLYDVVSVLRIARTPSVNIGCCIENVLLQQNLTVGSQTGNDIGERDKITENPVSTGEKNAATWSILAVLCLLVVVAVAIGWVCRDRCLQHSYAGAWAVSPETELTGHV

HT29-B7H4 cells = assay: Bystander killing test, separate incubation (CTG); type: cell-based; details: 10 nM, 7 days
[3] = tested on: human endometrial carcinoma cells RL95-2 subcutaneous xenograft; assay: Pharmacodynamic evaluation in tumor-bearing mice (RL95-2); type: in vivo
[4] = tested on: B7H4-overexpressing human colorectal cancer cells HT29 (HT29-B7H4); assay: In vitro proliferation inhibition of antibody-drug conjugate (2D cell culture, CTG); type: cell-based; details: HT29-B7H4, 10 nM, 7 days
human PD-L1 (B7-H1) = target: T7, human PD-L1 (B7-H1) (Homo sapiens, UniProt Q9NZQ7); assay: Binding specificity to cells overexpressing human B7 family proteins (flow cytometry); details: HEK293T stably expressing the protein, 100 nM or 300 nM
T7 construct: expressed in transfected cells
T7 sequence (Q9NZQ7 19-290): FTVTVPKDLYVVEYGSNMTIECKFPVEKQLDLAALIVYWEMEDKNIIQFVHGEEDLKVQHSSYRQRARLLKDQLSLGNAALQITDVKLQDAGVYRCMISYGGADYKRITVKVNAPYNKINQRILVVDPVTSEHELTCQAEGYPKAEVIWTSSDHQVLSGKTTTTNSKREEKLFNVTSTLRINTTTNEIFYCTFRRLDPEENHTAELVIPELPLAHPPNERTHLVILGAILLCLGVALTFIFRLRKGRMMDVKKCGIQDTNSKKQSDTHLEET

[5] = tested on: human primary T cells co-cultured with 293T-OS8-human B7H4 cells; assay: T cell activation: blocking B7H4 inhibition on T cells, IFN-gamma ELISA; type: cell-based; details: 0.02 nM, 3 days

B1: DB1001-X2: anti-B7H4 antibody DB1001 conjugated with linker-cytotoxin X2, DAR 5.4 (conjugate)
heavy: QVQLVESGGGVVQPGRSLRLSCAASGFTFRSFGMHWVRQAPGKGLEWVAVISYDASNEYYADSVKGRFIISRDNSKDTLYLQMNSLRAGDTAVYYCAKGGALRWYFAYWGQGTLVTVSS[in this place human IgG1 constant region]
light: EIVMTQSPATLSVSPGERATLSCRASQSISSNLGWYQQKPGQAPRLLIYGASTRATGIPARFSGSGSGTEFTLTISSLQSEDFAVYYCQQYRSWPPLTFGGGTKVEIKRTVAAPSVFIFPPSDEQLKSGTASVVCLLNNFYPREAKVQWKVDNALQSGNSQESVTEQDSKDSTYSLSSTLTLSKADYEKHKVYACEVTHQGLSSPVTKSFNRGEC
Human CD86 (B7-2)
  binding to B7-2: not detected
Human B7H4
  binding to human B7-H4: bound
Human VISTA (B7-H5)
  binding to B7-H5: not detected
Human PD-L2 (B7-DC)
  binding to B7-DC: not detected
MDA-MB-468 cells; MDA-MB-468, sample concentration 0.000384 nM
  Fluorescence value: 98.2 and 98.1
MDA-MB-468 cells; MDA-MB-468, sample concentration 0.00192 nM
  Fluorescence value: 96.6 and 97.4
MDA-MB-468 cells; MDA-MB-468, sample concentration 0.0096 nM
  Fluorescence value: 97.1 and 98.2
MDA-MB-468 cells; MDA-MB-468, sample concentration 0.048 nM
  Fluorescence value: 97.8 and 104
MDA-MB-468 cells; MDA-MB-468, sample concentration 0.24 nM
  Fluorescence value: 219 and 235
MDA-MB-468 cells; MDA-MB-468, sample concentration 1.2 nM
  Fluorescence value: 119 and 130
MDA-MB-468 cells; MDA-MB-468, sample concentration 6 nM
  Fluorescence value: 219 and 235
MDA-MB-468 cells; MDA-MB-468, sample concentration 30 nM
  Fluorescence value: 343 and 327
[1]
  Total fluorescence area: 14318.1 μm^2/image
[2]; 30 mg/kg
  AUC0-t: 51863.287 µg·h/mL
  T1/2: 164.9 h
[2]; 80 mg/kg
  AUC0-t: 183899.767 µg·h/mL
  T1/2: 218.5 h
Mouse B7H4
  EC50: Not binding
  MFI.Max: Not binding
Human ICOSLG (B7-H2)
  binding to B7-H2: not detected
HT29-B7H4 cells
  HT29-B7H4 cell viability, Separate incubation: 28.0%
[3]; RL95-2, day 28, 1 mg/kg
  T/C: 57.86%
  TGI: 49.92%
[3]; RL95-2, day 28, 1 mg/kg once every two weeks x2, mean ± standard error
  Tumor volume: 593 ± 79 mm^3
[3]; RL95-2, day 28, 3 mg/kg
  T/C: 24.06%
  TGI: 86.52%
[3]; RL95-2, day 28, 3 mg/kg once every two weeks x2, mean ± standard error
  Tumor volume: 258 ± 33 mm^3
[3]; RL95-2, day 28, 10 mg/kg
  T/C: 7.05%
  TGI: 106.59%
[3]; RL95-2, day 28, 10 mg/kg once every two weeks x2, mean ± standard error
  Tumor volume: 74 ± 5 mm^3
[4]
  Cell viability: 28.0%
Human PD-L1 (B7-H1)
  binding to B7-H1: not detected
[5]; T cells of donor 1
  Donor 1 IFN-γ: 6491.1 pg/mL
[5]; T cells of donor 2
  Donor 2 IFN-γ: 5914.4 pg/mL
[5]; mean of donors 1 and 2
  Mean IFN-γ: 6202.8 pg/mL

“And” between values parts separate entries of the source, which are not always exact repeats. Equal values may be shown once.
